From paper PMC4336329 (PLoS ONE, 2015)
The whole screen tested about 310,000 compounds, of which about 2,200 (0.71%) showed an effect of 50% or more. Effects have a minus sign here. The list shows a part of the results.

These compounds were tested against human ether-à-go-go-related gene (hERG) potassium channel (human, UniProt Q12809) (assay: primary screen, population patch clamp on CHO cells stably expressing hERG).
Chain of human ether-à-go-go-related gene (hERG) potassium channel (Q12809 whole entry, looked up): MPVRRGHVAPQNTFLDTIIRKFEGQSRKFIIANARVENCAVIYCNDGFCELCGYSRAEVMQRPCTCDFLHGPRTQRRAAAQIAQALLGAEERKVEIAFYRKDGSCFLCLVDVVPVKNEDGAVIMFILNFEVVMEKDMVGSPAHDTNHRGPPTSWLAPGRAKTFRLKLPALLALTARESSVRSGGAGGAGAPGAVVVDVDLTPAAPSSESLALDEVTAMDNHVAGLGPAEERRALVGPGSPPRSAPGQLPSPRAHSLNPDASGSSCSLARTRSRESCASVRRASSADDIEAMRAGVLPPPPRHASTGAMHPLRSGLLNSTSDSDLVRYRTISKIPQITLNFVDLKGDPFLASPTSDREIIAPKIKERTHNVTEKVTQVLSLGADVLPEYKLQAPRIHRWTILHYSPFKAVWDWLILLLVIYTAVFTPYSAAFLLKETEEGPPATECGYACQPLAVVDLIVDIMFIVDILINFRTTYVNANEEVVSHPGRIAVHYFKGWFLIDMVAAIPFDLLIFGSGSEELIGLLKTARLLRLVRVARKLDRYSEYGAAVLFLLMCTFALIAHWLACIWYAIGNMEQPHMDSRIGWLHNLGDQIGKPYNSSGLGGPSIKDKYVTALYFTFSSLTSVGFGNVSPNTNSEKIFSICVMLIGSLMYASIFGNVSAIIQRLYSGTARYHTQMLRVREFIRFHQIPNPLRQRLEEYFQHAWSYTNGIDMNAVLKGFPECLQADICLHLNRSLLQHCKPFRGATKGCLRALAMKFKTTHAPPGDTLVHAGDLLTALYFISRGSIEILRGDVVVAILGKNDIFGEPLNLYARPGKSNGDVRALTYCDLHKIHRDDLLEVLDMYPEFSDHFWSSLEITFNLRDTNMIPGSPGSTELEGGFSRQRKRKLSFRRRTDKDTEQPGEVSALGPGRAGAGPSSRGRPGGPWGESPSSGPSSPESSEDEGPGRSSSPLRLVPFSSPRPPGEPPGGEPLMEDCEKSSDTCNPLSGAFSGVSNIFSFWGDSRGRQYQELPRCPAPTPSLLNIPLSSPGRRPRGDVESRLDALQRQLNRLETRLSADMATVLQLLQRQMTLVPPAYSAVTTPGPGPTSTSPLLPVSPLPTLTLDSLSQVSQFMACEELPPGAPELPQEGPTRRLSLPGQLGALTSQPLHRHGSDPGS

In order of rising “hERG current change (%, negative = inhibition) at 1uM” value:
1. COc1ccc(CN2CCN(c3ccccc3F)CC2)c(OC)c1  -57.8%
2. O=C(CN(c1cccc(Cl)c1)S(=O)(=O)c1ccc(Cl)cc1)N1CCc2ccccc2C1  -17.5%
3. Cc1c(C(=O)NC(C)CN2CCCCC2)oc2ccccc12 (stereo not shown)  -7.81%
4. CC(=O)N=c1sccn1CC(=O)c1ccc([N+](=O)[O-])cc1  -6.56%
5. COc1ccc2ncc(S(=O)(=O)c3ccccc3)c(N3CCC4(CC3)OCCO4)c2c1  -6.47%
6. CCC(C)(C(=O)Nc1ccc2c(c1)OCCO2)N(C(C)=O)c1ccc(C(N)=O)cc1 (stereo not shown)  -6.44%
7. Cc1cc(C)nc(-n2nc(C)cc2NC(=O)CNC2CCCCC2)n1  -5.51%
8. CCOC(=O)c1cc(-c2ccccc2)n(CCC(=O)NC(C)CC)c1C (stereo not shown)  -5.34%
9. CS(=O)(=O)N(CC(=O)N1CCCCCC1)c1cccc(Br)c1  -4.76%
10. Cn1c(N)c(C(=O)COC(=O)/C=C/c2ccc(S(=O)(=O)N3CCOCC3)cc2)c(=O)n(C)c1=O  -4.31%
11. Cc1ccc(N2C(=O)C3C4C=CC(CNC(=S)Nc5cccc(Cl)c5)(O4)C3C2=O)cc1 (stereo not shown)  -3.83%
12. CCCn1cc(SCC(=O)Nc2cc(C)on2)c2ccccc21  -2.82%
13. O=C(NCc1ccc(Cl)c(Cl)c1)c1ccc2c(c1)OCO2  -2.74%
14. O=C(O)c1cc(-c2cccs2)nc2cc3c(cc12)OCCO3  -2.68%
15. COc1cc(NC(=O)N2CCNC2=O)cc(C(=O)Nc2cccc(C(F)(F)F)c2)c1  -1.8%
16. CCOc1ccc(S(=O)(=O)N2CCOCC2)cc1NC(=O)CN1C(=O)NC2(CCCCC2)C1=O  -1.58%
17. CCNC(=S)N/N=C/c1sc(N2CCCCC2)nc1-c1cccs1  -1.33%
18. O=C1CC(c2ccccc2)N1c1ccccc1 (stereo not shown)  -0.587%
19. Cn1c(=O)c2[nH]c(-c3cccnc3)nc2n(C)c1=O  -0.455%
20. CC(C)(C)c1ccc(NC(=O)Cn2cnc3cc([N+](=O)[O-])ccc3c2=O)cc1  0.367%
21. COCCN(C(=S)Nc1cccc(OC)c1)C(C)c1cccs1 (stereo not shown)  1.03%
22. O=C1c2ccccc2CSc2c(O)cccc21  1.06%
23. O=C(CN1CCOc2ccccc21)N1CCN(c2cccc(Cl)c2)CC1  1.22%
24. CC(C)(C)OC(=O)NCCCCCc1nnc(SCc2cccc(F)c2)o1  1.64%
25. COC(=O)c1ccccc1NC(=O)CSc1nnc(-c2cccnc2)n1N  2.17%
26. Cc1ccc2nc(SCC(=O)Nc3ccc(F)c([N+](=O)[O-])c3)[nH]c2c1  2.21%
27. O=C(NCc1cccnc1)c1ccc(Cl)c(S(=O)(=O)Nc2ccccc2C(=O)NCc2cccnc2)c1  2.3%
28. CCc1nnc(NC(=O)C2CC(=O)N(c3ccc(C)cc3)C2)s1 (stereo not shown)  2.64%
29. CC(=O)c1c(C)n(CC(=O)NCc2ccco2)c2ccccc12  3.11%
30. CCC(O)(CCN1CCCCC1)c1ccccc1 (stereo not shown)  3.27%
31. CC(=O)Nc1cccc(NC(=O)c2cc(C)on2)c1  3.33%
32. NC(=O)c1c(NC(=O)CCCn2cnc([N+](=O)[O-])n2)sc2c1CCCC2  3.37%
33. Cc1c(C)c(C)c(CO/N=C/c2cccs2)c(C)c1C  3.42%
34. CN1/C(=C/C2CC(=O)N(c3cccc4ccccc34)C2=O)C(C)(C)c2ccccc21 (stereo not shown)  3.51%
35. Cc1nc2cc(NC(=O)Nc3ccccc3Cl)ccc2n1C  3.73%
36. Cc1cccc(-[n+]2c(C)cc(C)c3c(=O)[nH]c(=O)[nH]c32)c1.[I-]  4.1%
37. COc1cc(C(=O)NC(c2ccccc2)c2ccccc2)cc(Cl)c1OC  4.19%
38. COc1ccc(/C=N/NC(=O)c2c(C)nnn2-c2nonc2N)cc1OC  4.23%
39. O=c1c2ccccc2nc(SCc2ccc([N+](=O)[O-])cc2)n1-c1ccc(Cl)cc1  4.42%
40. COc1ccc(C)cc1NC(=O)CCNS(=O)(=O)c1ccc2c(c1)CCC(=O)N2  4.47%
41. COc1ccc(S(=O)(=O)N(C)C)cc1NC(=O)COC(=O)Cn1cnc2ccccc2c1=O  5.03%
42. O=C(COC(=O)c1ccccc1O)Nc1ccc(N2CCOCC2)cc1  5.13%
43. O=c1/c(=C/c2cccc3ccccc23)sc2ncnn12  5.17%
44. COc1cccc(C(=O)NNC(=O)Cc2csc(N)n2)c1  6.02%
45. Cn1c(/C=C/c2ccc(Cl)cc2)c([N+](=O)[O-])c(=O)n(C)c1=O  6.85%
46. O=C(Nc1cn(-c2ccccc2)nc1-c1ccc(Cl)cc1)c1ccccc1  7.01%
47. CCCN(CC1CCCO1)C(=O)c1cc(COc2cccc(OC)c2)on1 (stereo not shown)  7.66%
48. CSc1ccccc1NC(=O)c1cnc2scc(C)n2c1=O  7.83%
49. CCOC(=O)c1c(N)sc2c1CCN(CCc1ccccc1)C2  7.93%
50. CCOC(=O)c1cccc(C2=CC(=O)CC(C)(C)C2)c1  8.16%
51. Cc1cccc(/C(N)=N/OC(=O)CCCc2ccccc2)c1  8.17%
52. CCOc1ccc(NS(=O)(=O)c2ccc(C(=O)NCC3(N4CCCCC4)CCCCC3)cc2)cc1  8.39%
53. CC1Cc2ccccc2N1CC(=O)Nc1ccc2c(c1)OCO2 (stereo not shown)  8.48%
54. CCCNC(=O)C(Cc1cccc(C#N)c1)NC(=O)c1cccc([N+](=O)[O-])c1 (stereo not shown)  8.85%
55. CC(=O)Nc1ccc(NC(=O)CN(c2ccc([N+](=O)[O-])cc2)S(=O)(=O)c2ccccc2)cc1  9.06%
56. COc1cc2c(cc1OC)CN(Cc1cc(=O)oc3cc(C)c(Cl)cc13)CC2  9.06%
57. CC(=O)c1ccc(NC(=O)CSc2nnc(-c3ccncc3)n2C2CC2)cc1  9.22%
58. O=C(COc1cccc2ccccc12)NCc1cccnc1  9.41%
59. O=C1NC(Nc2ccccn2)(C(F)(F)F)C(=O)N1c1ccc(F)cc1 (stereo not shown)  9.43%
60. O=C(O)c1csc(-n2nc(-c3ccccc3)cc2C(F)(F)F)n1  9.45%
61. CCC(Cc1ccccc1)NC(=O)CCn1cccc1 (stereo not shown)  10%
62. O=C1C(O)CC2c3ccccc3CC3(CCCC3)N12 (stereo not shown)  10%
63. COCCCNC(=O)/C(C#N)=C/c1ccc(F)cc1  10.1%
64. COc1cc(/C=N/NC(=O)c2ccc3nc[nH]c3c2)cc(OC)c1OC  10.6%
65. COc1ccc(C(=O)N[C@H](C(=O)NCc2ccccc2)C(C)C)cc1  10.6%
66. Cc1c(NC(=O)C(C)Oc2cccc(Cl)c2)c(=O)n(-c2ccccc2)n1C (stereo not shown)  10.7%
67. Cc1noc(NS(=O)(=O)c2ccc(NC(=O)C(F)(F)C(F)(F)C(F)(F)F)cc2)c1C  10.9%
68. Cc1cc2c(cc1S(=O)(=O)N1CCN(c3ccc(Cl)cc3)CC1)OCCN2C  10.9%
69. S=C(Nc1cccc(Cl)c1)Nc1ccccc1Oc1ccccc1  11.1%
70. Cc1ccc2nccc(C(=O)N3CCCC(Nc4ccc(F)cc4)C3)c2c1 (stereo not shown)  11.4%
71. COc1cc(C(=O)OCC(=O)Nc2c(F)c(F)c(F)c(F)c2F)cc(OC)c1OC  11.6%
72. COc1ccc(NC(=O)C2CCCN(C(=O)Nc3ccc(F)cc3)C2)cc1OC (stereo not shown)  11.8%
73. COc1cc(CCC(=O)OCc2nnc(-c3ccccc3)o2)cc(OC)c1OC  12.1%
74. CCOc1cccc(NC(=O)CC#N)c1  12.4%
75. O=C(Nc1ccc(N2CCOCC2)cc1)c1ccc(Cl)c(S(=O)(=O)N2CCCC2)c1  12.6%
76. Cc1ccc(C(=O)O)cc1S(=O)(=O)N1CCOCC1  12.9%
77. NC(=O)c1cc[n+](Cc2ccccc2Cl)cc1.[Br-]  13.3%
78. CC(=O)Nc1ccc(NC(=O)Nc2cccc(Cl)c2)cc1  13.3%
79. O=C1C=C(c2cccc(Cl)c2)C[C@@H](c2ccc(Cl)cc2)C1  14.6%
80. Cc1cc(N2CCCC2=O)c(N)cc1N  15%
81. CCOC(=O)c1cnc2c(-c3ccccc3)c(-c3ccccc3)nn2c1C  15.5%
82. CCC1=NN(C(=O)CCc2ccc3c(c2)OCO3)C(O)(C(F)(F)F)C1 (stereo not shown)  15.5%
83. CC(C)CCN(C(=O)c1ccc(N2CCCC2=O)cc1)c1c(N)n(Cc2ccccc2)c(=O)[nH]c1=O  16.1%
84. Cc1nc(NC(=O)CSc2nnc(N)s2)c(Cl)cc1Cl  16.2%
85. CC(C)(C)c1nnc(NC(=O)C2CCN(C(=O)c3ccco3)CC2)s1  17.9%
86. O=C(CC1C(=O)NCCN1CC1CCCCC1)NC1(c2ccccc2)CC1 (stereo not shown)  18.4%
87. Cc1nc2c(=O)n(-c3ccc(F)cc3F)nc(C)c2s1  20%
88. O=C(CN1C(=O)C(=O)N(Cc2ccco2)C1=O)NC1CCCCC1  21.2%
